Results taken from the supplement of paper PMC12217912.
This is one part of the list. The full chains were built here from the parent and the listed change. Values near 0.05 are background.

B1: TEV protease; numbered along this chain (parent)
chain: MGESLFKGPRDYNPISSSICHLTNESDGHTTSLYGIGFGPFIITNKHLFRRNNGTLVVQSLHGVFKVKDTTTLQQHLVDGRDMIIIRMPKDFPPFPQKLKFREPQREERICLVTTNFQTKSMSSMVSDTSCTFPSGDGIFWKHWIQTKDGQCGSPLVSTRDGFIVGIHSASNFTNTNNYFTSVPKNFMELLTNQEAQQWVSGWRLNADSVLWGGHKVFMVKPEEPFQPVKEATQL

Variants of: B1
Experiment: raw area under fraction-flipped curve 0-4 h after induction (AUC4h, not background-subtracted), DNA-recorder readout of cleavage of the substrate (dimensionless); higher = more cleavage of the substrate by the protease variant
Details: temperature: 34 °C; time window: 0-4 h after rhamnose induction
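Note: Bxb1 expression induced with 0.2% (w/v) L-rhamnose at OD600 near 0.5, cultures sampled hourly, flipped fraction per protease–substrate barcode pair counted by paired-end Illumina sequencing.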

Row | Variant | area with substrate ENDYFQS | area with substrate ENEYFQS | area with substrate ENHYFQS | area with substrate ENKYFQS | area with substrate ENNYFQS | area with substrate ENQYFQS | area with substrate ENRYFQS | area with substrate ENSYFQS | area with substrate ENWYFQS | area with substrate ENYYFQS | area with substrate ENFYFQS | area with substrate ENGYFQS | area with substrate ENIYFQS | area with substrate ENMYFQS | area with substrate ENTYFQS | area with substrate ENVYFQS | area with substrate ENPYFQS
1 | S171L | 0.07 | 0.0672 | 0.0558 | 0.066 | 0.0577 | 0.0548 | 0.0662 | 0.0624 | 0.0015 | 0.0572 |  |  |  |  |  |  | 
2 | Q234N | 0.0605 | 0.0606 |  | 0.0473 | 0.0833 | 0.0727 |  | 0.0632 |  |  | 0.0648 | 0.0665 | 0.113 | 0.0639 | 0.0632 | 0.0667 | 
3 | I84G |  | 0.0581 |  |  |  | 0.0572 |  | 0.0438 |  | 0.053 |  | 0.0631 | 0.0935 |  | 0.0445 | 0.0762 | 
4 | T176K | 0.0356 |  |  | 0.0603 |  |  |  |  |  |  | 0.0612 |  | 0.0753 |  |  | 0.0488 | 
5 | Q227K | 0.0606 | 0.0669 | 0.0426 | 0.069 | 0.0712 | 0.0543 |  | 0.0644 |  |  | 0.065 | 0.044 |  | 0.121 | 0.0456 | 0.0909 | 0.0447
6 | S127K |  |  | 0.0642 | 0.0604 | 0.0516 | 0.0643 | 0.0755 |  |  |  |  | 0.0629 |  |  | 0.0518 |  | 
7 | W199N | 0.0623 | 0.064 | 0.0571 | 0.0542 | 0.0616 | 0.0729 |  | 0.0587 |  | 0.057 | 0.0629 |  | 0.0617 | 0.0028 |  | 0.0849 | 0.062
